In all, about 33,000 sequences were measured (“E-score (-0.5 to 0.5)”: median about -0.035, highest 2% from about 0.34 on). The list shows a part of the results.
Molecular target: T1, Mot3 (UniProt P54785)
T1 sequence: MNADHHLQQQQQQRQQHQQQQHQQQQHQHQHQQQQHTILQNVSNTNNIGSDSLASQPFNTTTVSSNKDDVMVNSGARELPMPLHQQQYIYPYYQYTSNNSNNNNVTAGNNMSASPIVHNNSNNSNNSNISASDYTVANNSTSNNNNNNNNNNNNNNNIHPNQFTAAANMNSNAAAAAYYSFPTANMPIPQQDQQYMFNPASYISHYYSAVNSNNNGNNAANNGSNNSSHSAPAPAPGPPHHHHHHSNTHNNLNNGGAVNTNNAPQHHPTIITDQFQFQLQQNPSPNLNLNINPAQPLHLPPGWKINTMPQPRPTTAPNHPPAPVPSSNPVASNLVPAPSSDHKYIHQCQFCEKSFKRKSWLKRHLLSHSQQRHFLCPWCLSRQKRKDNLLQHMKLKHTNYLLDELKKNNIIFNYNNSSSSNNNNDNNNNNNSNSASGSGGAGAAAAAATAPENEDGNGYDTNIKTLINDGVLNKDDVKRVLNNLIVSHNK
Test: PBM E-score (8-mer binding enrichment) (E-score (-0.5 to 0.5)); higher = stronger / more preferred TF binding; most listed sequences are background and not binding sites
Conditions: protein concentration: 200 nM; construct: GST-full length
Outline: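 Universal all-10-mer Agilent arrays, fresh or stripped once, were converted to double-stranded form by primer extension. GST-tagged yeast transcription factors from PURExpress in vitro transcription/translation, full-length or DNA-binding domain only, were applied at about 100-200 nM and detected with fluorescent anti-GST. After masliner normalisation, the Universal PBM Analysis Suite scored each ungapped eight-base word together with its reverse complement by E-score.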

| Sequence | PBM E-score |
| --- | --- |
| AAAAAGTT | 0.0612 |
| GGACATCA | -0.00266 |
| AGATGTTA | 0.158 |
| TGAATTCA | 0.198 |
| GATCGTGA | -0.041 |
| CCACGTCA | -0.0638 |
| CAGATACG | -0.243 |
| AAACGCCT | 0.0664 |
| AGATATGA | -0.0367 |
| AATGTAAC | 0.218 |
| CCCCGCAC | -0.167 |
| GAGGGTTA | -0.0647 |
| TAAATGTA | 0.346 |
| AGGGTCAC | -0.0692 |
| CCAATCCG | -0.272 |
| AGCAAATC | -0.0446 |
| GGAGAGGA | -0.279 |
| GACTTCCA | -0.126 |
| CATCTCAA | 0.0898 |
| GTCTGAGA | -0.0514 |
| ATCTAGAC | -0.104 |
| CTCGAAGA | -0.159 |
| TGACCGCA | -0.0417 |
| CAGAATAC | 0.115 |
| AAATCTCA | 0.00372 |

| Sequence | PBM E-score |
| --- | --- |
| CAACACTC | 0.129 |
| GGTGTGAC | -0.198 |
| ATTGATAC | 0.00627 |
| CACATAAA | 0.202 |
| GCCGTGTA | 0.349 |
| CGCCCATA | -0.242 |
| TAGTCAGA | -0.177 |
| ACGTCATC | 0.0498 |
| AGCTAAGA | -0.067 |
| GAGTCAAA | -0.124 |
| GCCGACCC | -0.288 |
| ACTGTTGC | -0.0412 |
| CCATGGGC | -0.252 |
| CATTCTCG | -0.0552 |
| GGCGGTCA | -0.217 |
| TAGTTAAA | 0.219 |
| ACCCAGCC | -0.259 |
| GCGCCGAA | -0.245 |
| CATGATCC | -0.0181 |
| CCGTGGGA | -0.315 |
| CAGAGCCC | -0.199 |
| CCTACCTA | 0.156 |
| AAAGCCGA | -0.225 |
| CTGAACTA | 0.0444 |
| GGCGAGAA | -0.143 |

| Sequence | PBM E-score |
| --- | --- |
| CCTTGACC | -0.00187 |
| AGTCCGTG | -0.137 |
| TTGCCCAA | 0.111 |
| GTCGAGAC | -0.0772 |
| CGTCGTAG | -0.122 |
| CGAGCGAA | -0.185 |
| ACGGCACG | 0.155 |
| TACTCACA | 0.0635 |
| CGTATGTA | 0.309 |
| AATTGCAG | 0.0282 |
| AACTCATG | 0.0648 |
| GAGGGTCC | -0.284 |
| AAGTCTGC | -0.106 |
| CTAGACCC | -0.126 |
| TGTTTCAA | 0.0318 |
| ATTTCCGA | -0.201 |
| GCAATATA | 0.0935 |
| AAAGCGCG | 0.0677 |
| CTGTGCGA | 0.0202 |
| CTGGAGTA | -0.0249 |
| AACAAAGA | 0.172 |
| AAACAGCA | 0.0649 |
| CTAATCCC | -0.0715 |
| CAGGCTGG | -0.185 |
| CTATCGGA | -0.0461 |

| Sequence | PBM E-score |
| --- | --- |
| ATCCCGGC | -0.234 |
| AAGCACAC | 0.0333 |
| CGCGTACG | 0.156 |
| ACTAATAA | 0.142 |
| AAACCTCC | -0.102 |
| AGTTCTGC | -0.0851 |
| AGACCTTG | 0.0469 |
| ACTCCGAT | -0.0536 |
| ATGGGCTC | -0.0868 |
| CGATCTAG | -0.138 |
| CAACACGC | 0.322 |
| GCTACGGA | -0.161 |
| CGCCCATC | -0.261 |
| CGTGAGTC | -0.199 |
| ACCCCCAA | -0.0432 |
| ACGCCTAA | 0.116 |
| AGACTTCG | 0.0697 |
| GTTATCAA | 0.0169 |
| GCGACGTA | 0.0393 |
| ACCGCGAA | -0.0635 |
| CATACCCC | -0.119 |
| CTTACTGC | -0.153 |
| CCAATAAC | 0.0787 |
| CAAGCTTC | -0.207 |
| ACGGAACA | -0.0342 |

| Sequence | PBM E-score |
| --- | --- |
| ACCGGCTG | -0.0846 |
| AATAGCTC | -0.14 |
| ATCGATCG | -0.0942 |
| ATGATGGA | -0.0932 |
| CGACACGC | 0.157 |
| AACGTGAA | 0.15 |
| GGTCATAC | -0.226 |
| GCCCCTCA | -0.167 |
| ATCAGCGA | -0.168 |
| CTTATGGA | -0.267 |
| ACGGTCAT | 0.0032 |
| CGGGAAAG | -0.185 |
| CGCATTTC | 0.0684 |
| ACATGTAC | 0.333 |
| CTCTGACC | -0.361 |
| CTTCTGTC | -0.147 |
| CTAATGTA | 0.271 |
| GAAGAAAC | -0.0108 |
| AAACTAAA | 0.146 |
| ACAGCTAC | 0.0626 |
| GCTCGTCA | -0.203 |
| GGCTAACC | 0.0149 |
| CATCGCTA | 0.0342 |
| TGTAAACA | 0.387 |
| CCGGAAAG | -0.215 |

| Sequence | PBM E-score |
| --- | --- |
| GTAGGTAA | 0.346 |
| TAACCACA | 0.179 |
| ATAACGCA | 0.218 |
| GAGCCCGC | -0.333 |
| ATCGCATC | -0.309 |
| GATGAAGA | -0.135 |
| GGCTCCAA | -0.0568 |
| AGAGTGGC | -0.204 |
| AGTCTGTA | -0.00969 |
| ATAGACCC | 0.178 |
| CAGTCGAC | -0.0375 |
| TGGATCAA | -0.145 |
| ACGGATGC | -0.0571 |
| ACCCATGA | -0.131 |
| GCATACCA | -0.152 |
| ACCCCCGA | 0.0111 |
| CACGGAGC | 0.123 |
| GGACGTAA | 0.185 |
| GGGAACTA | -0.0385 |
| CCAAATCA | -0.129 |
| ATAGAAAC | 0.0847 |
| AACGTATC | -0.0288 |
| CCGGTACC | 0.0368 |
| AGGTCTGC | -0.276 |
| AACTGGAG | -0.249 |

| Sequence | PBM E-score |
| --- | --- |
| ACAGGACG | 0.15 |
| GTTTAAAC | 0.299 |
| GTAACGGA | 0.175 |
| AAGAGCTT | -0.0699 |
| GTAAGGAC | -0.194 |
| CTGTTTTC | 0.0271 |
| AACCTCTA | -0.144 |
| ACAGGAGC | 0.106 |
| CTGCGCCA | -0.192 |
| AACTTCGC | -0.0198 |
| AGGTTGAG | 0.0336 |
| TGTCCGAA | -0.066 |
| ATAATGAC | -0.0486 |
| AGCTCAAT | -0.0703 |
| AGTAGAGC | -0.013 |
| CTTACTCA | -0.123 |
| GTGCGGTA | -0.0948 |
| CCAGCAGG | -0.00306 |
| CCCAGGAC | -0.288 |
| GCGTGCCA | -0.0888 |
| ATACTATC | 0.0544 |
| GATTCCAA | -0.0635 |

From the supplement of paper PMC3334620
